Results from patent publication US20230287146A1 (LAMKAP BIO GAMMA, published 2023).

Target: T1, human CD28 (human, UniProt P10747 19-220)
T1 construct: whole, on cells; also called huCD28
Assay: flow cytometry, bivalent mAb on Jurkat cells
Description: Cells were harvested, checked for viability, and counted. 200'000 cells were incubated for 15 minutes at 4° C. with increasing concentrations of the antibodies diluted in FACS buffer (PBS 2% BSA). Cells were washed twice with cold FACS buffer and re-incubated for further 15 minutes at 4° C. with a suitable anti-human IgG secondary antibody. Cells were washed twice with cold FACS buffer and resuspended in 150 μl FACS buffer with a compatible viability marker. Binding of antibodies to living cells was measured by flow cytometry using a Cytoflex Platform (Beckman Coulter). Data was analyzed with FlowJo™ v10 software (BD Life Sciences) and dose-response binding curves were drawn using GraphPad Prism 9 software. AD84 GPC3 arm of the GPC3×CD3 bispecific antibody and P44, P30, P111 GPC3 arms of the GPC3×CD28 bispecific antibodies of this invention were selected from this screening process based on their specificity and binding signal intensity to GPC3 positive cells.
The binding capacity of the anti-CD28 antibody arms of the invention, tested as bivalent mAbs, was assessed using Jurkat cells (Jurkat Clone E6-1, ATCC TIB 152) by flow cytometry. The flow cytometry methodology was the same as the one described above. AI3 and AI10 CD28 binding arms were selected from this screening process based on their specificity and binding signal intensity to CD28 positive cells.

T1 sequence (P10747 19-220): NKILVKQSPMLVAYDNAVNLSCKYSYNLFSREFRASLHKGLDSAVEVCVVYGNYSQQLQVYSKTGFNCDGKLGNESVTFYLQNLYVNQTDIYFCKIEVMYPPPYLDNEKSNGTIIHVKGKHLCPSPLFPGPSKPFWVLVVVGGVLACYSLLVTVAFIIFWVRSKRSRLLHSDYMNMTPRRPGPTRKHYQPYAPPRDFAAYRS

binding result: binds
B1: AI3 anti-CD28 bivalent mAb (antibody, V domains shown)
VH: [gap - about 120 residues]
VL: DIVMTQSPDSLAVSLGERATINCKSSQSVLYSSNNKNYLAWYQQKPGQPPKLLIYWASTRESGVPDRFSGSGSGTDFTLTISSLQAEDVAVYYCQQNLRPPETFGQGTKVEIK
